# System: Semliki Forest virus (SFV)
# Conditions: 10 μM IDX 72 hours, SFV MOI of 2, 24 hours
structure (smiles),measurement,value
"Oc1ccc(C2=Cc3ccc(O)cc3OC2)cc1 [IDX, 2H-1-Benzopyran-7-0,1,3-(4-hydroxyphenyl)]",sensitisation of cells to SFV infection,did not sensitize
